Measured values as given in the RNAGym collection of RNA variant scans (doi:10.1073/pnas.2313332121).
Variants at the background level are over-represented here.

B1: TPR 5TU (parent)
chain: GGAUCUUCUCGAUCUAACAAAAAAGACAAAUCUGCCACAAAGCUUGAGAGCAUCUUCGGAUGCAGAGGCGGCAGCCUUCGGUGGCGCGAUAGCGCCAACGUUCUCAACUAUGACACGCAAAACGCGUGCUCCGUUGAAUGGAGUUUAUCAUG

Variants of: B1
Experiment: polymerase ribozyme fitness, log enrichment relative to wild type (log ratio); higher = more active; in vitro selection for triplet polymerase activity
In short: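 Genotype fitness is the logarithm of its enrichment divided by wild-type enrichment, using inverse-variance-weighted averages of replicates. That logarithm is base 2. Enrichment was measured by Illumina sequencing of input and output libraries from one triplicate in vitro selection round, with frozen incubation at −7 °C, on PCR-built, transcribed mutant libraries of each subunit of a heterodimeric triplet polymerase ribozyme, retaining genotypes with ≥10 input reads and ≥1 read per output.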

| Variant | polymerase ribozyme fitness (log ratio) |
| --- | --- |
| A29G C131U | ≤ -4.2 |
| A29G U111A | ≤ -4.2 |
| A29C A37U G68C | ≤ -4.2 |
| A29C A49G C87A A150G | ≤ -4.2 |
| A28U A52C A91C G92U | ≤ -4.2 |
| A29G C93U G143U | ≤ -4.2 |
| A29G C32G G94A U101G | ≤ -4.2 |
| A29C C57A C93U | ≤ -4.2 |
| A28U C93U G140U | ≤ -4.2 |
| A28U A47C U130G | ≤ -4.2 |
| A29G C76U G92A G126U A142U U144G | ≤ -4.2 |
| A29G A41G U56A C93U U145A | ≤ -4.2 |
| A28U C32U U33A U56C | ≤ -4.2 |
| A29C A37C G92C C99U | ≤ -4.2 |
| A28U G67U C85A C118U A122C G128U | ≤ -4.2 |
| A29C A40G G46A A47U C57U G59A C95A | ≤ -4.2 |
| A28U G42A A49C C72A C76G | ≤ -4.2 |
| A29G A52C G92U A107G G143C U148G | ≤ -4.2 |
| A29G U45A C87G C93U C118G G124U G133U A138C | ≤ -4.2 |
| A29G U145G C149G | ≤ -4.2 |
| A29C C54A G70U | ≤ -4.2 |

| Variant | polymerase ribozyme fitness (log ratio) |
| --- | --- |
| A28U C93U G141U | ≤ -4.2 |
| A28U U56A G84A G86A C87A C108A A110U U145C | ≤ -4.2 |
| A29C U90C | ≤ -4.2 |
| A28U G133A A142G | ≤ -4.2 |
| A28U G46A C105G | ≤ -4.2 |
| A29U A41U U148G | ≤ -4.2 |
| A29G G88U U90C U111G | ≤ -4.2 |
| A29G C35G G84C G100A | ≤ -4.2 |
| A29U A30U A40C C75U C87G G133U U145A | ≤ -4.2 |
| A29C C38U U44G C57A A107U A110G | ≤ -4.2 |
| A29G C57U G74A G94C C95A G126A | ≤ -4.2 |
| A28U C35G U90C C118G | ≤ -4.2 |
| A29C A73U C79U C93U A106G | ≤ -4.2 |
| A29C G50U G81A C95A G133U | ≤ -4.2 |
| A28U G58C A64C G94U A98U C116U G117U C129U A137U | ≤ -4.2 |
| A29U A30G A49G A115G | ≤ -4.2 |
| A28U A66U A73G G86U C103G C116U G152U | ≤ -4.2 |
| A28U C43G C75U C76G C95A U109A | ≤ -4.2 |
| A29U A30U C95A A107U C108G A115C U134C U148C | ≤ -4.2 |
| A29U A30G G86U G140A | ≤ -4.2 |
| A29C C57G C75U C93A C114G A120G G141U | ≤ -4.2 |

| Variant | polymerase ribozyme fitness (log ratio) |
| --- | --- |
| A29G C51G A73G C85G | ≤ -4.2 |
| A28U C99U A107C | ≤ -4.2 |
| A29C A52C C95U U111A G133U U144A | ≤ -4.2 |
| A28U G50A C132U | ≤ -4.2 |
| A28U A47C G88C U144C | ≤ -4.2 |
| A28U A47C | -3.9 |
| A29C A98G C116A | ≤ -4.2 |
| A28U C75U U82G G86A G88C C108G G143A | ≤ -4.2 |
| A28U U55A A97G | ≤ -4.2 |
| A28U C85G C116G U134C C149G | ≤ -4.2 |
| A28U C96U | -3.66 |
| A29G G58C A73U G92C A98G C125A | ≤ -4.2 |
| A28U U53A | ≤ -4.2 |
| A29G G42A G81A C85U | -4.09 |
| A29U A40U A52G C54A C76G G80A U109A | ≤ -4.2 |
| A29G U45C A52C U53G U134C G136U | ≤ -4.2 |
| A29G A52U G86C A121G | ≤ -4.2 |
| A29C A37U G42C U56G G84A | ≤ -4.2 |
| A28U C93U C99U C108U C129G G133U | ≤ -4.2 |
| A28U C85U G92C A98C A142C | ≤ -4.2 |
| A29C A49C G50A C87G U102G G117A U127G | ≤ -4.2 |

| Variant | polymerase ribozyme fitness (log ratio) |
| --- | --- |
| A29G G59U A60U C114U | ≤ -4.2 |
| A29C C51A C87G | ≤ -4.2 |
| A29C U56A G58A G59A A73U G126C | ≤ -4.2 |
| A29C G94A A110U G124A A147U | ≤ -4.2 |
| A28U U53A A73G A110C | ≤ -4.2 |
| A28U A137C G140U U144C | ≤ -4.2 |
| A29U A30U C87G C114A U144A | ≤ -4.2 |
| A29G U45A C85U G88A A150U | ≤ -4.2 |
| A29U A41C U45A C103U A122G | ≤ -4.2 |
| A29G G86A G92A C95A A106C | ≤ -4.2 |
| A29G C57U G84A U104C G128U | ≤ -4.2 |
| A29U A41U U53G G88U A89G G117A | ≤ -4.2 |
| A28U C32U G42C G84A A89G G92A C131A U148A | ≤ -4.2 |
| A29G A47C G70A C85G A89U A138C A142U | ≤ -4.2 |
| A28U C96U U144G | ≤ -4.2 |
| A28U G58U C103G C116A A137C | ≤ -4.2 |
| A29C G58U | -4.16 |
| A28U A73G | ≤ -4.2 |
| A28U C57A C93G A106G | ≤ -4.2 |
| A29G G58C G92A U101A C108G A122C C125G | ≤ -4.2 |
